# Test results published in PubChem BioAssay AID588855 (National Center for Advancing Translational Sciences (NCATS), 2011).
# The campaign covered roughly 410,000 compounds. About 5,000 (1.2%) were called active. The shares of active, inactive and inconclusive entries below differ from those in the screen. The call rests on the fitted dose curve; in most records, active means well fitted inhibition curve with a large enough effect; inconclusive means small, poorly fitted or top-dose-only effect; inactive means no such curve, though single readings can be large or run the other way. Where the call is inconclusive, the potency comes from a doubtful curve fit.
# Experiment: qHTS for Inhibitors of TGF-b; further: nearly all actives have a fitted effect of over 65% in size
# Conditions: HepG2 CAGA-GFP TGF-b/SMAD3 reporter, GFP fluorescence, 18 h, TGF-beta stimulated, 500 pg/mL final; series mostly up to 46.1 µM; activity, negative = inhibition: at the top concentration
# Summary of the method: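 GFP signal (ex488/em500-530) from TGF-beta-stimulated HEPG2 CAGA-GFP cells, 500 pg/mL final, 18 h at 37 degrees C in DMEM plus 1% FBS, normalized to unstimulated and DMSO-stimulated controls.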
# On the % scale 0 is the no-effect control and ±100 the full control effect; potency means the concentration at half of the fitted maximal effect; tags describe the fitted curve by direction and shape.
Structure (SMILES),Potency,"activity, negative = inhibition"
CCCCn1c(/N=C/c2ccccc2NS(=O)(=O)c2ccc(C)cc2)nc2ccccc21,active: 15.8 µM,
O=C(NCCC1=CCCCC1)C1CCN(S(=O)(=O)c2ccc(Br)s2)CC1,,inactive: -26.9%
CN(C)CCCN(C(=O)CCc1ccccc1)c1nc2c(F)cccc2s1,"inconclusive: 35.5 µM [inhibitor, single point]",
OC(COC(c1ccc(Cl)cc1)c1ccc(Cl)cc1)CN1CCc2ccccc2C1 (centres undefined),"inconclusive: 22.4 µM [inhibitor, single point]",
Nc1ccccc1SCC(O)Cn1ccc2ccccc21 (centres undefined),,inactive: 2.62%
CCCCOc1cccc(C(=O)NC(=S)Nc2cccnc2)c1,"inconclusive: 5.62 µM [inhibitor, single point]",
Cc1cc2ncn(-c3ncccc3[N+](=O)[O-])c2cc1C,,inactive: 5.59%
COc1ccccc1NC(=O)c1cc(S(=O)(=O)N2CCc3ccccc32)ccc1F,inactive,
Cc1cc(Cl)ccc1C(O)c1ncc(-c2ccccc2Cl)[nH]1 (centres undefined),"inconclusive: 35.5 µM [inhibitor, single point]",
Cc1nn(S(=O)(=O)c2ccc(Cl)cc2)c(C)c1S(=O)(=O)N1CCCCCC1,,inactive: 26.6%
CSc1ccc(S(=O)(=O)NCCCOC(C)C)cc1,"inconclusive: 35.5 µM [inhibitor, single point]",
O=C(NCC1COc2ccccc2O1)c1cccc(S(=O)(=O)N2CCCCC2)c1 (centres undefined),"inconclusive: 35.5 µM [inhibitor, single point]",
Cc1ccc(N(C)S(=O)(=O)c2ccc(-c3cc(C)no3)s2)cc1,"inconclusive: 17.8 µM [inhibitor, single point]",
CC(C)(C)OC(=O)C[C@H]1C/C=C\C[C@H](CC(=O)N[C@H](CO)Cc2ccccc2)C(=O)N[C@@H](Cc2ccccc2)COC1=O,"inconclusive: 11.2 µM [inhibitor, partial curve, poor fit]",
COC(=O)Cc1c(C)nc2nc(-c3ccc(OC)cc3)[nH]n2c1=O,"inconclusive: 35.5 µM [inhibitor, single point]",
Cc1ccc(CCNc2ncnc(Cl)c2N)cc1,,inactive: -19.3%
Clc1ncnc2scc(C3COc4ccccc4O3)c12 (centres undefined),"inconclusive: 5.62 µM [inhibitor, single point]",
CCCCCC1CC(CC(=O)Nc2ccc([N+](=O)[O-])cc2)C(=O)O1 (centres undefined),"inconclusive: 35.5 µM [inhibitor, single point]",
CCn1c(SCc2ccccc2Cl)nc(=O)c2c(C(=O)OC)cc(C3CC3)nc21,"inconclusive: 22.4 µM [inhibitor, single point]",
O=C1Nc2ccccc2S/C1=C/Nc1cccc(Cl)c1,,inactive: 0.737%
CC1(Cc2ccc(C(F)(F)F)o2)C(=O)Nc2cc(-c3ccc(F)cc3F)ccc21 (centres undefined),"inconclusive: 22.4 µM [inhibitor, single point]",
O=c1[nH]cnc2c1c(-c1ccccc1)cn2-c1cccc(Cl)c1,"inconclusive: 15.8 µM [inhibitor, partial curve, poor fit]",
C/C(=N\O)c1ccc2c3ccccc3n(C)c2c1,"inconclusive: 35.5 µM [inhibitor, single point]",

Structure (SMILES),Potency,"activity, negative = inhibition"
O=C(c1ccccc1)N1CCN(S(=O)(=O)c2cccc(NS(=O)(=O)c3ccccc3)c2)CC1,,inactive: 2.16%
NNC(=O)c1ccc2ccccc2n1,"inconclusive: 35.5 µM [inhibitor, single point]",
COc1ccc(S(=O)(=O)NCc2ccco2)cc1NC(=O)c1ccccc1,,inactive: 4.12%
CC(=O)NC(c1cc(Cl)c2ccccc2c1O)C(C)C (centres undefined),,inactive: -11.9%
COc1ccc(/C=C(/C(=O)c2cccs2)N2C=CC=CC2=C(C#N)C#N)cc1,"inconclusive: 11.2 µM [inhibitor, partial curve, poor fit]",
Cc1ccc2[nH]c(=O)c(CN(Cc3cccs3)Cc3nnnn3Cc3ccccc3)cc2c1,"inconclusive: 25.1 µM [inhibitor, single point]",
Clc1ccc(CCNC(c2nnc(-c3ccccc3)o2)c2ccccc2Cl)cc1 (centres undefined),"inconclusive: 35.5 µM [inhibitor, single point]",
CN1CCN(c2ncccc2S(=O)(=O)N2CCCCC2)CC1,,inactive: -12.5%
COCCN1CCC(CNCc2cn(-c3cc(C)ccc3C)nc2-c2ccccc2)C1 (centres undefined),"inconclusive: 35.5 µM [inhibitor, single point]",
Cc1ccc(SC[C@H](CC(C)C)N2CCN(CCc3ccccc3)CCC2=O)cc1,"inconclusive: 22.4 µM [inhibitor, single point]",
CC(O)(c1ccc(F)c(F)c1)c1nc(-c2ccc(Cl)cc2)cs1 (centres undefined),"inconclusive: 11.2 µM [inhibitor, single point]",
CCN1C(=O)[C@H]2[C@@H](c3ccc(C)cc3)N3C(=O)N(c4ccc(C)cc4)C(=O)[C@@]3(CC)[C@H]2C1=O,"inconclusive: 7.08 µM [inhibitor, full curve]",
O=C(NCc1ccco1)c1cccc(NC(=O)c2ccccc2)c1,,inactive: -6.3%
S=C(N/N=C/c1ccccc1Cl)Nc1ccccc1,"inconclusive: 3.55 µM [inhibitor, partial curve, poor fit]",
CCc1nn(C(C)C(=O)NCCc2ccc(OC)c(OC)c2)c(=O)c2cc3occc3n12 (centres undefined),"inconclusive: 5.62 µM [inhibitor, full curve, poor fit]",
C=CCn1cnc2c(c1=O)c1nc3ccccc3nc1n2/N=C/c1cccc(OC)c1OC,,inactive: 5.71%
COc1ccc(NC(=O)c2noc3c2CCC3)cc1,,inactive: 2.21%
COc1ccc2cc(C(=O)C3CCCN(C(=O)c4cncs4)C3)ccc2c1 (centres undefined),"inconclusive: 7.08 µM [inhibitor, partial curve]",
Cc1ccc(Cn2c(C(C)Nc3nc(-c4ccc(F)cc4)cs3)nc3cc(C(=O)NCCCO)ccc32)cc1 (centres undefined),"inconclusive: 35.5 µM [inhibitor, single point]",
COCCNc1nc(Oc2cccc(NC(C)=O)c2)c2sccc2n1,,inactive: -9.93%
N=C1/C(=C\c2ccc(OC(=O)c3ccc(F)cc3)cc2)C(=O)N=C2SC(N3CCOCC3)=NN12,,inactive: -10.1%
O=c1c2sc3ccccc3c2n(Cc2cccc(C(F)(F)F)c2)c(=O)n1Cc1ccco1,"inconclusive: 4.47 µM [inhibitor, partial curve, poor fit]",
Cc1cc(O)c(C2(C(F)(F)F)NCCNC2=O)cc1C (centres undefined),"inconclusive: 0.631 µM [inhibitor, full curve]",

Structure (SMILES),Potency,"activity, negative = inhibition"
O=C(CSc1ccc(-c2ccccn2)nn1)N1CCCc2ccccc21,"inconclusive: 35.5 µM [inhibitor, single point]",
COc1ccccc1CNc1nc(=S)[nH]c2cc(OC)c(OC)cc12,,inactive: 1.81%
CCOCCCNC(=O)NC(CCC(C)C)c1c(-n2cccc2)sc2c1CCN(C)C2 (centres undefined),,inactive: 6.61%
Cc1ccc(C)c(S(=O)(=O)N/N=C/c2ccc(N(C)C)cc2)c1,"inconclusive: 5.62 µM [inhibitor, single point]",
COc1ccc(CNc2nc(-c3cccnc3)nn2S(C)(=O)=O)cc1,,inactive: -7.25%
Cc1ccc(-c2cc(C(=O)N3CCN(c4ccccc4O)CC3)c3ccccc3n2)o1,,inactive: 0%
CCOc1ccccc1NC(=O)N1CCCC(c2nc3c(nnn3Cc3ccc(C)cc3)c(=O)[nH]2)C1 (centres undefined),,inactive: 61.4%
Cc1c(C(=O)NCc2cccnc2)oc2ccc(S(=O)(=O)N3CCC4(CC3)OCCO4)cc12,"inconclusive: 0.282 µM [inhibitor, full curve, poor fit]",
COc1ccc(-c2cc3ccccc3oc2=O)cc1NC(=O)c1ccc([N+](=O)[O-])o1,active: 6.31 µM,
CCOc1ccccc1CNC(=O)c1ccc2nc(Cc3ccc(OC)cc3)oc2c1,"inconclusive: 0.355 µM [inhibitor, full curve, poor fit]",
O=C(Nc1cc(NC(=O)c2ccccc2Cl)ccc1Cl)c1ccccc1,,inactive: -0.431%
CC1=C(C)CC2C(C1)C(=O)c1ccc(Br)cc1S2(=O)=O (centres undefined),"inconclusive: 7.94 µM [inhibitor, partial curve, poor fit]",
CC(C)CN(C)C(=O)CC1C(=O)NCCN1C (centres undefined),"inconclusive: 0.447 µM [inhibitor, partial curve, poor fit]",
CCC(=O)c1ccc(OCC(=O)OCC(=O)N2CCc3ccccc3C2)cc1,"inconclusive: 2.82 µM [inhibitor, single point]",
CCCCN(C)C(=O)Cn1nc(Cc2ccncc2)c2ccccc2c1=O,"inconclusive: 1.41 µM [inhibitor, single point]",
CN(CC1COc2ccccc2O1)C(=O)c1ccc(Cl)c(S(=O)(=O)N2CCCCCC2)c1 (centres undefined),"inconclusive: 28.2 µM [inhibitor, single point]",
c1ccc2oc(-c3[nH]ncc3CN3CCSCC3)cc2c1,,inactive: -0.277%
O=C(NCCCn1ccnc1)C1CCCN(S(=O)(=O)c2cc(Cl)ccc2Cl)C1 (centres undefined),"inconclusive: 6.31 µM [inhibitor, full curve, poor fit]",
Cc1ccc(-n2ncc3c(=O)n(CC(=O)N4CCCc5ccccc54)cnc32)cc1C,"inconclusive: 22.4 µM [inhibitor, single point]",
CCOC(=O)c1c(C)oc2nc(C)nc(N3CCN(c4ccccc4)CC3)c12,"inconclusive: 11.2 µM [inhibitor, single point]",
COc1ccccc1N1CCN(C(=O)CCS(=O)(=O)c2cc(Br)cc3c2N(C(=O)C2CC2)CC3)CC1,"inconclusive: 7.94 µM [inhibitor, partial curve, poor fit]",
COc1cccc(CN2CCN(C(c3ccccc3)c3ccccc3)CC2)c1O,"inconclusive: 35.5 µM [inhibitor, single point]",
Cc1cc(C(=O)c2ccc(C(C)(C)C)cc2)c(NC(=O)CCl)s1,active: 15.8 µM,
